The results in this text go back to the antibiotic and cytotoxicity screens of Wong et al. (2023).

The list shows a part of the results.

The test deals with HSkMC (human skeletal muscle cells). The test is described as follows: cytotoxicity call (relative viability < 0.9). Particulars: 10 µM.
On to `C[C@H](O)C#Cc1ccc2c(c1)O[C@H](CN(C)C(=O)c1ccccc1)[C@H](C)CN([C@@H](C)CO)S2(=O)=O`, for which the cytotoxicity call is “inactive”.

For the molecule `C[C@@H]1CCCCO[C@@H](CN(C)S(=O)(=O)c2ccccc2)[C@@H](C)CN([C@@H](C)CO)C(=O)c2cc(NS(=O)(=O)c3cn(C)cn3)ccc2O1`, the cytotoxicity call is “inactive”.

For the molecule `O=C(NCCn1ncc2c(=O)n(Cc3ccccc3)cnc21)c1ccc(S(=O)(=O)N2CCOCC2)cc1`, the cytotoxicity call is “inactive”.

Take `C[C@@H]1CN([C@@H](C)CO)S(=O)(=O)c2ccc(C#Cc3ccccc3F)cc2O[C@H]1CN(C)C(=O)Cc1cccnc1`: the cytotoxicity call is “inactive”.

In the case of `C[C@@H]1CN([C@H](C)CO)C(=O)Cc2cc(NC(=O)C3CCCCC3)ccc2O[C@H]1CN(C)Cc1ccc(Cl)c(Cl)c1`, the cytotoxicity call is “inactive”.

Turning to `C[C@H](CO)N1C[C@H](C)[C@@H](CN(C)S(=O)(=O)c2cn(C)cn2)Oc2cc(Br)ccc2S1(=O)=O`, the cytotoxicity call was “inactive”.

As to `CO[C@@H]1CN(C)C(=O)c2ccc(NS(=O)(=O)c3cn(C)cn3)cc2OC[C@H](C)N(CCC(F)(F)F)C[C@@H]1C`, the cytotoxicity call was “inactive”.

On to `CO[C@H]1CN(C)C(=O)c2cc(NC(=O)C3CC3)ccc2OC[C@@H](C)N(C(=O)CN2CCOCC2)C[C@@H]1C`, for which the cytotoxicity call was “inactive”.

On to `COc1ccccc1OCC(O)CO` (centres undefined), for which the cytotoxicity call is “inactive”.
